# This is one part of the list.
# B1: GH95CBM (Clostridium perfringens) (protein)
# chain: EKVAVETSVYLSELEWKSASTGYGEIQKDASCDGNTITLKGENGEKVSYDKGIGTHAHSEIVYSLEGLDYYDYFETFVGVDQEMAGTVASISFEVYLDNEKVFDSGLMTGDTTQKHVKVPIAGKNTLKLVVKDGGDSIGSDHGSFGDAKLT
# Tests used:
# Experiment in all cases: glycan array binding signal (z-score within array); higher = stronger binding
# Conditions in all cases: glycan notation: IUPAC condensed, linker removed
# [1] = biological target: Neu5Ac(a2-3)Gal(b1-3)[Fuc(a1-4)]GlcNAc
# In short: (§1)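 Glycan array binding is given as a within-array Z-score, which can be read as non-binding when negative. The arrays, 3228 of them, came from the Consortium for Functional Glycomics database and were retained only where the protein sequence was available. Z-scores were averaged across arrays of the same protein sequence at different concentrations or buffers and across linkers.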
# [2] = biological target: Neu5Ac(a2-3)Gal(b1-3)[Fuc(a1-4)]GlcNAc(b1-3)Gal(b1-4)[Fuc(a1-3)]GlcNAc
# In short: as §1
# [3] = biological target: Neu5Ac(a2-3)Gal(b1-3)[Neu5Ac(a2-3)Gal(b1-4)]GlcNAc
# In short: as §1
# [4] = biological target: Neu5Ac(a2-3)Gal(b1-3)[Neu5Ac(a2-6)]GalNAc
# In short: as §1
# Neu5Ac(a2-3)Gal(b1-4)Glc = biological target: Neu5Ac(a2-3)Gal(b1-4)Glc
# In short: as §1
# [5] = biological target: Neu5Ac(a2-3)Gal(b1-4)GlcNAc
# In short: as §1
# [6] = biological target: Neu5Ac(a2-3)Gal(b1-4)GlcNAc(b1-2)Man(a1-3)[GlcNAc(b1-2)Man(b1-4)GlcNAc(b1-2)Man(a1-6)]Man(b1-4)GlcNAc(b1-4)GlcNAc
# In short: as §1
# [7] = biological target: Neu5Ac(a2-3)Gal(b1-4)GlcNAc(b1-2)Man(a1-3)[Neu5Ac(a2-6)Gal(b1-4)GlcNAc(b1-2)Man(a1-6)]Man(b1-4)GlcNAc(b1-4)GlcNAc
# In short: as §1
# [8] = biological target: Neu5Ac(a2-3)Gal(b1-4)GlcNAc(b1-3)Gal(b1-3)GlcNAc
# In short: as §1
# [9] = biological target: Neu5Ac(a2-3)Gal(b1-4)GlcNAc(b1-3)Gal(b1-4)GlcNAc
# In short: as §1
# [10] = biological target: Neu5Ac(a2-3)Gal(b1-4)GlcNAc(b1-3)Gal(b1-4)GlcNAc(b1-3)Gal(b1-4)GlcNAc
# In short: as §1
# [11] = biological target: Neu5Ac(a2-3)Gal(b1-4)GlcNAc(b1-3)Gal(b1-4)[Fuc(a1-3)]GlcNAc
# In short: as §1
# [12] = biological target: Neu5Ac(a2-3)Gal(b1-4)GlcNAc(b1-6)[Gal(b1-3)]GalNAc
# In short: as §1
# [13] = biological target: Neu5Ac(a2-3)Gal(b1-4)GlcNAc(b1-6)[Neu5Ac(a2-3)Gal(b1-3)]GalNAc
# In short: as §1
# [14] = biological target: Neu5Ac(a2-3)Gal(b1-4)GlcNAc6S
# In short: as §1
# [15] = biological target: Neu5Ac(a2-3)Gal(b1-4)[Fuc(a1-3)]GlcNAc
# In short: as §1
# [16] = biological target: Neu5Ac(a2-3)Gal(b1-4)[Fuc(a1-3)]GlcNAc(b1-3)Gal
# In short: as §1
# [17] = biological target: Neu5Ac(a2-3)Gal(b1-4)[Fuc(a1-3)]GlcNAc(b1-3)Gal(b1-4)GlcNAc
# In short: as §1
# [18] = biological target: Neu5Ac(a2-3)Gal(b1-4)[Fuc(a1-3)]GlcNAc(b1-3)Gal(b1-4)[Fuc(a1-3)]GlcNAc(b1-3)Gal(b1-4)[Fuc(a1-3)]GlcNAc
# In short: as §1
# [19] = biological target: Neu5Ac(a2-3)Gal(b1-4)[Fuc(a1-3)]GlcNAc(b1-6)[Gal(b1-3)]GalNAc
# In short: as §1
# [20] = biological target: Neu5Ac(a2-3)Gal(b1-4)[Fuc(a1-3)]GlcNAc6S
# In short: as §1
# [21] = biological target: Neu5Ac(a2-3)Gal6S(b1-4)GlcNAc
# In short: as §1
# [22] = biological target: Neu5Ac(a2-3)Gal6S(b1-4)[Fuc(a1-3)]GlcNAc
# In short: as §1
# Neu5Ac(a2-3)GalNAc = biological target: Neu5Ac(a2-3)GalNAc
# In short: as §1
# [23] = biological target: Neu5Ac(a2-3)GalNAc(b1-4)GlcNAc
# In short: as §1
# [24] = biological target: Neu5Ac(a2-3)[GalNAc(b1-4)]Gal(b1-4)Glc
# In short: as §1
# [25] = biological target: Neu5Ac(a2-3)[GalNAc(b1-4)]Gal(b1-4)GlcNAc
# In short: as §1
# [26] = biological target: Neu5Ac(a2-3)[Neu5Ac(a2-6)]GalNAc
# In short: as §1
# Neu5Ac(a2-6)Gal = biological target: Neu5Ac(a2-6)Gal
# In short: as §1
# Neu5Ac(a2-6)Gal(b1-4)Glc = biological target: Neu5Ac(a2-6)Gal(b1-4)Glc
# In short: as §1
# [27] = biological target: Neu5Ac(a2-6)Gal(b1-4)GlcNAc
# In short: as §1
# [28] = biological target: Neu5Ac(a2-6)Gal(b1-4)GlcNAc(b1-2)Man(a1-3)[Gal(b1-4)GlcNAc(b1-2)Man(a1-6)]Man(b1-4)GlcNAc(b1-4)GlcNAc
# In short: as §1
# [29] = biological target: Neu5Ac(a2-6)Gal(b1-4)GlcNAc(b1-2)Man(a1-3)[GlcNAc(b1-2)Man(a1-6)]Man(b1-4)GlcNAc(b1-4)GlcNAc
# In short: as §1
# [30] = biological target: Neu5Ac(a2-6)Gal(b1-4)GlcNAc(b1-2)Man(a1-3)[GlcNAc(b1-2)Man(b1-4)GlcNAc(b1-2)Man(a1-6)]Man(b1-4)GlcNAc(b1-4)GlcNAc
# In short: as §1
# [31] = biological target: Neu5Ac(a2-6)Gal(b1-4)GlcNAc(b1-2)Man(a1-3)[Neu5Ac(a2-6)Gal(b1-4)GlcNAc(b1-2)Man(a1-6)]Man(b1-4)GlcNAc(b1-4)GlcNAc
# In short: as §1
# [32] = biological target: Neu5Ac(a2-6)Gal(b1-4)GlcNAc(b1-2)Man(a1-6)[Gal(b1-4)GlcNAc(b1-2)Man(a1-3)]Man(b1-4)GlcNAc(b1-4)GlcNAc
# In short: as §1
# [33] = biological target: Neu5Ac(a2-6)Gal(b1-4)GlcNAc(b1-2)Man(a1-6)[GlcNAc(b1-2)Man(a1-3)]Man(b1-4)GlcNAc(b1-4)GlcNAc
# In short: as §1
# [34] = biological target: Neu5Ac(a2-6)Gal(b1-4)GlcNAc(b1-3)Gal(b1-4)GlcNAc
# In short: as §1
# [35] = biological target: Neu5Ac(a2-6)Gal(b1-4)GlcNAc(b1-3)Gal(b1-4)[Fuc(a1-3)]GlcNAc(b1-3)Gal(b1-4)[Fuc(a1-3)]GlcNAc
# In short: as §1
# [36] = biological target: Neu5Ac(a2-6)Gal(b1-4)GlcNAc6S
# In short: as §1
# Neu5Ac(a2-6)GalNAc = biological target: Neu5Ac(a2-6)GalNAc
# In short: as §1
# [37] = biological target: Neu5Ac(a2-6)GalNAc(b1-4)GlcNAc
# In short: as §1
# Neu5Ac(a2-8)Neu5Ac = biological target: Neu5Ac(a2-8)Neu5Ac
# In short: as §1
# [38] = biological target: Neu5Ac(a2-8)Neu5Ac(a2-3)Gal(b1-4)Glc
# In short: as §1
# [39] = biological target: Neu5Ac(a2-8)Neu5Ac(a2-3)[GalNAc(b1-4)]Gal(b1-4)Glc
# In short: as §1
# [40] = biological target: Neu5Ac(a2-8)Neu5Ac(a2-8)Neu5Ac
# In short: as §1
# [41] = biological target: Neu5Ac(a2-8)Neu5Ac(a2-8)Neu5Ac(a2-3)Gal(b1-4)Glc
# In short: as §1
# [42] = biological target: Neu5Ac(a2-8)Neu5Ac(a2-8)Neu5Ac(a2-3)[GalNAc(b1-4)]Gal(b1-4)Glc
# In short: as §1
# [43] = biological target: Neu5Ac(a2-8)Neu5Ac(a2-8)Neu5Ac(a2-8)Neu5Ac(a2-3)[GalNAc(b1-4)]Gal(b1-4)Glc
# In short: as §1
# [44] = biological target: Neu5Ac(b2-6)Gal(b1-4)GlcNAc
# In short: as §1
# Neu5Ac(b2-6)GalNAc = biological target: Neu5Ac(b2-6)GalNAc
# In short: as §1
# [45] = biological target: Neu5Ac9Ac(a2-6)Gal(b1-4)GlcNAc
# In short: as §1
# [46] = biological target: Neu5Gc(a2-3)Gal(b1-3)GlcNAc
# In short: as §1
# [47] = biological target: Neu5Gc(a2-3)Gal(b1-3)[Fuc(a1-4)]GlcNAc
# In short: as §1
# Neu5Gc(a2-3)Gal(b1-4)Glc = biological target: Neu5Gc(a2-3)Gal(b1-4)Glc
# In short: as §1
# [48] = biological target: Neu5Gc(a2-3)Gal(b1-4)GlcNAc
# In short: as §1
# [49] = biological target: Neu5Gc(a2-3)Gal(b1-4)[Fuc(a1-3)]GlcNAc
# In short: as §1
# [50] = biological target: Neu5Gc(a2-6)Gal(b1-4)GlcNAc
# In short: as §1
# Neu5Gc(a2-6)GalNAc = biological target: Neu5Gc(a2-6)GalNAc
# In short: as §1
# [51] = biological target: Neu5Gc(b2-6)Gal(b1-4)GlcNAc
# In short: as §1
binder,measurement,setting,value
B1,glycan array binding signal (z-score),[1],-0.358
same,glycan array binding signal (z-score),[2],-0.265
same,glycan array binding signal (z-score),[3],-0.355
same,glycan array binding signal (z-score),[4],-0.314
same,glycan array binding signal (z-score),Neu5Ac(a2-3)Gal(b1-4)Glc,0.497
same,glycan array binding signal (z-score),[5],-0.196
same,glycan array binding signal (z-score),[6],0.978
same,glycan array binding signal (z-score),[7],-0.357
same,glycan array binding signal (z-score),[8],-0.358
same,glycan array binding signal (z-score),[9],-0.339
same,glycan array binding signal (z-score),[10],-0.239
same,glycan array binding signal (z-score),[11],-0.329
same,glycan array binding signal (z-score),[12],-0.289
same,glycan array binding signal (z-score),[13],0.839
same,glycan array binding signal (z-score),[14],-0.351
same,glycan array binding signal (z-score),[15],-0.345
same,glycan array binding signal (z-score),[16],-0.353
same,glycan array binding signal (z-score),[17],-0.063
same,glycan array binding signal (z-score),[18],1.2
same,glycan array binding signal (z-score),[19],-0.231
same,glycan array binding signal (z-score),[20],1.31
same,glycan array binding signal (z-score),[21],-0.133
same,glycan array binding signal (z-score),[22],-0.268
same,glycan array binding signal (z-score),Neu5Ac(a2-3)GalNAc,-0.326
same,glycan array binding signal (z-score),[23],-0.362
same,glycan array binding signal (z-score),[24],-0.339
same,glycan array binding signal (z-score),[25],-0.336
same,glycan array binding signal (z-score),[26],-0.358
same,glycan array binding signal (z-score),Neu5Ac(a2-6)Gal,-0.355
same,glycan array binding signal (z-score),Neu5Ac(a2-6)Gal(b1-4)Glc,-0.303
same,glycan array binding signal (z-score),[27],-0.269
same,glycan array binding signal (z-score),[28],-0.168
same,glycan array binding signal (z-score),[29],-0.35
same,glycan array binding signal (z-score),[30],-0.3
same,glycan array binding signal (z-score),[31],0.964
same,glycan array binding signal (z-score),[32],-0.132
same,glycan array binding signal (z-score),[33],-0.314
same,glycan array binding signal (z-score),[34],-0.346
same,glycan array binding signal (z-score),[35],-0.276
same,glycan array binding signal (z-score),[36],-0.298
same,glycan array binding signal (z-score),Neu5Ac(a2-6)GalNAc,-0.333
same,glycan array binding signal (z-score),[37],-0.37
same,glycan array binding signal (z-score),Neu5Ac(a2-8)Neu5Ac,-0.283
same,glycan array binding signal (z-score),[38],-0.249
same,glycan array binding signal (z-score),[39],-0.135
same,glycan array binding signal (z-score),[40],-0.356
same,glycan array binding signal (z-score),[41],-0.343
same,glycan array binding signal (z-score),[42],-0.34
same,glycan array binding signal (z-score),[43],-0.28
same,glycan array binding signal (z-score),[44],-0.339
same,glycan array binding signal (z-score),Neu5Ac(b2-6)GalNAc,-0.339
same,glycan array binding signal (z-score),[45],-0.367
same,glycan array binding signal (z-score),[46],-0.364
same,glycan array binding signal (z-score),[47],-0.252
same,glycan array binding signal (z-score),Neu5Gc(a2-3)Gal(b1-4)Glc,-0.265
same,glycan array binding signal (z-score),[48],-0.34
same,glycan array binding signal (z-score),[49],-0.303
same,glycan array binding signal (z-score),[50],-0.377
same,glycan array binding signal (z-score),Neu5Gc(a2-6)GalNAc,-0.328
same,glycan array binding signal (z-score),[51],-0.33

# — the supplement of paper PMC8728848
